Article PMC9856372
These are yes or no findings as the source states them, for the method shown. Binding seen in cells or lysates may run through a third protein. Some binding calls cover weakened binding; strength is not graded here. Where a sequence is shown, tags or fusion partners need not be part of it.

Experiments:
myc-tagged PTCH1(1-1308) = biological target: T1, myc-tagged PTCH1(1-1308) (UniProt Q13635); test: co-IP; HEK293 cells co-transfected with myc-PTCH1 variants and ATG101-FLAG; PTCH1 variants immunoprecipitated by the myc tag, immunoblotting; lysis buffer 50 mM Tris HCl pH 7.5, 150 mM NaCl, 1% NP-40, 0.05% sodium deoxycholate, 4 °C
T1 sequence: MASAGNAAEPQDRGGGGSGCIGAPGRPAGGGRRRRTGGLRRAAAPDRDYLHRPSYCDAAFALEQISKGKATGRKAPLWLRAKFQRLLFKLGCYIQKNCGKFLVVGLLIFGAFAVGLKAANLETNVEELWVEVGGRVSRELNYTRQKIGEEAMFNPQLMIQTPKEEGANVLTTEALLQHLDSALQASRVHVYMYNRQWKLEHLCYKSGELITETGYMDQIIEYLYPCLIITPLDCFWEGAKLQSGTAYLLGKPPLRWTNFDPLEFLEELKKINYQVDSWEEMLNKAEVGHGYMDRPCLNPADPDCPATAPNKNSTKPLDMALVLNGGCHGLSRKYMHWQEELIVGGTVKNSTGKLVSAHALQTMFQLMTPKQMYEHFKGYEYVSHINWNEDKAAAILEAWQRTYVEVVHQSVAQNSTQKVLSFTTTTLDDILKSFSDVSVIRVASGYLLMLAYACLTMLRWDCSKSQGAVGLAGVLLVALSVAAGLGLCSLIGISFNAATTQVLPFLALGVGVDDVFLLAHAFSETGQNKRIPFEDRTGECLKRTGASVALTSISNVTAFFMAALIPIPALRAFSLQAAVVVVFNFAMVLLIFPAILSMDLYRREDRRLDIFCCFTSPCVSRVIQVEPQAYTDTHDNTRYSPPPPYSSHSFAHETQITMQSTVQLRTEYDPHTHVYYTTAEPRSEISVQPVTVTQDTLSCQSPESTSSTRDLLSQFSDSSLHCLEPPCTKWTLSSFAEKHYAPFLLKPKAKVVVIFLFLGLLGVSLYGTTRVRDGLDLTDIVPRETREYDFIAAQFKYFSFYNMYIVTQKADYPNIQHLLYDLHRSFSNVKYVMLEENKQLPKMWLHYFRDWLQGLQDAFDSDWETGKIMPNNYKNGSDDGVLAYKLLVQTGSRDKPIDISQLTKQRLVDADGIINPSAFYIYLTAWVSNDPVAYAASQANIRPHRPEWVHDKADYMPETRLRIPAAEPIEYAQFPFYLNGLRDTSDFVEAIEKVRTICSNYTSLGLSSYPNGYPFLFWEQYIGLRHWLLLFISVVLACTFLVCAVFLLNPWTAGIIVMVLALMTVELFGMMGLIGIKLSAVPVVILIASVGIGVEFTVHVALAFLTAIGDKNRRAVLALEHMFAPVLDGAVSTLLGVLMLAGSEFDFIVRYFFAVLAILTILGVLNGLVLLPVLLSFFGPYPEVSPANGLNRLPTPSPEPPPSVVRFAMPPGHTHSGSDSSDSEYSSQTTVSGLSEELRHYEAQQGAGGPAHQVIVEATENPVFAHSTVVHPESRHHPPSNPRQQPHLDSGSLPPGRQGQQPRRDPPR

myc-tagged PTCH1(1-1203) = biological target: T2, myc-tagged PTCH1(1-1203) (UniProt Q13635); test: as above
T2 sequence: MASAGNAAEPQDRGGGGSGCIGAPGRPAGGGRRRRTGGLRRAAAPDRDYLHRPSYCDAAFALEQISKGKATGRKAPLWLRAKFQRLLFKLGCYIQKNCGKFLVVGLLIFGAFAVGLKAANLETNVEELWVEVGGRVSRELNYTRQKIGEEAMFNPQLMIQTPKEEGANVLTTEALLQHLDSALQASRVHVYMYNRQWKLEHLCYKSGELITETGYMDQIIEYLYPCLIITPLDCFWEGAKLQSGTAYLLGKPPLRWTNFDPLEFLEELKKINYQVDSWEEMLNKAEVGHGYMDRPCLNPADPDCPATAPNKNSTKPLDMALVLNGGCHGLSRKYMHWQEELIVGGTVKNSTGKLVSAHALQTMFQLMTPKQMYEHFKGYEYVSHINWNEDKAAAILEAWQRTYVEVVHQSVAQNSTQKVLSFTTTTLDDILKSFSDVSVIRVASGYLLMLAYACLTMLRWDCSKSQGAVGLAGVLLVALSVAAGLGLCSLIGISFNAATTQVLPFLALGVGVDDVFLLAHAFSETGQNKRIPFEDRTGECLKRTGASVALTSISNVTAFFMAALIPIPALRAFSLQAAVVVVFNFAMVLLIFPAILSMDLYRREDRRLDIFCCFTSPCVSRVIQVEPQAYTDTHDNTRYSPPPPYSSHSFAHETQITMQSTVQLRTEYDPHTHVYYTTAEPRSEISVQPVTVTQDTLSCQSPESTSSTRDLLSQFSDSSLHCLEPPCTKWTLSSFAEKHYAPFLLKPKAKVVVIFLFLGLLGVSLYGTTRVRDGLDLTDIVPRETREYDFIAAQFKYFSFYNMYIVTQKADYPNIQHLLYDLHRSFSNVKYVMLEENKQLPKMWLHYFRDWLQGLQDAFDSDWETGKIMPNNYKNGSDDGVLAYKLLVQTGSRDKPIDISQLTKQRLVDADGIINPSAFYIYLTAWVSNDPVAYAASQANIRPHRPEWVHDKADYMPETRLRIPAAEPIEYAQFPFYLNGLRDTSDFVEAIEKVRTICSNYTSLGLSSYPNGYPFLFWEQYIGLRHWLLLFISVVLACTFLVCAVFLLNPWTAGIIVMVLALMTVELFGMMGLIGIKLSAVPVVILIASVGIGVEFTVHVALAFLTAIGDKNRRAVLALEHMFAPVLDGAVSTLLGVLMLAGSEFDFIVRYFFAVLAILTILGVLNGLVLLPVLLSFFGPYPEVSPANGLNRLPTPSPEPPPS

[1] = biological target: T3, PTCH1 full CTD (1176-1447), HA-tagged (UniProt Q13635); test: co-IP; HEK293 cells co-transfected with HA-tagged PTCH1 CTD fragments and ATG101-FLAG; CTD fragments immunoprecipitated, immunoblotting; lysis buffer 50 mM Tris HCl pH 7.5, 150 mM NaCl, 1% NP-40, 0.05% sodium deoxycholate, 4 °C
T3 sequence: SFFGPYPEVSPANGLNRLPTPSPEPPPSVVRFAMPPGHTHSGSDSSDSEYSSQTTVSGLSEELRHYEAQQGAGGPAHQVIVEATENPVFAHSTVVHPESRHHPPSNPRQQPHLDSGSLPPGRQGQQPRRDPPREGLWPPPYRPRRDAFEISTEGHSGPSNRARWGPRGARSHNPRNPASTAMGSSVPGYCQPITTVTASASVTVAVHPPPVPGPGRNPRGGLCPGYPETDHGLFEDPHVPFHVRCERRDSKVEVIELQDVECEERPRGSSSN

binding (myc-tagged PTCH1(1-1308)): no binding
binding (myc-tagged PTCH1(1-1203)): no binding
binding [1]: binds
B1: ATG101-FLAG (protein, UniProt Q9BSB4 1-218)
chain: MNCRSEVLEVSVEGRQVEEAMLAVLHTVLLHRSTGKFHYKKEGTYSIGTVGTQDVDCDFIDFTYVRVSSEELDRALRKVVGEFKDALRNSGGDGLGQMSLEFYQKKKSRWPFSDECIPWEVWTVKVHVVALATEQERQICREKVGEKLCEKIINIVEVMNRHEYLPKMPTQSEVDNVFDTGLRDVQPYLYKISFQITDALGTSVTTTMRRLIKDTLAL
